{
  "source": "PubChem BioAssay (NCATS)",
  "test": "qHTS Assay for Lipid Storage Modulators (AID 1519)",
  "conditions": "Drosophila S3 cells, BODIPY lipid droplet/cell ratio, laser cytometry, cells loaded with oleic acid",
  "in_short": "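Cells seeded at 5,000 per well were treated with compounds over a concentration series and loaded with oleic acid (400 uM, as added). Lipid droplet fluorescence (488 nm excitation, 500-530 nm channel) was read by laser-scanning cytometry and normalized to 20 uM Triacsin C.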",
  "key": {"[1]": {"conditions": "measured here: cell count channel max response"}, "[2]": {"conditions": "measured here: cell number channel AC50"}, "[3]": {"conditions": "measured here: lipid (BODIPY) channel AC50"}, "[4]": {"conditions": "measured here: lipid channel max response"}},
  "note": "Several values for one entry are separate records, joined by “and”; a condition that tells them apart may be missing. Equal entries are not always repeated. Some of the results follow. These are further read-outs of the screen, such as a control signal, another cell line or another target. No call is given for them. Compounds called inactive in the main read-out are mostly missing here. Potencies come from curve fits of mixed quality, noted in brackets. Tags describe the fitted curve by direction and shape.",
  "data": [
    {"molecule": "Cn1c(=O)c(-c2ccc(F)c(F)c2)nc2cncnc21", "values": [
      {"measurement": "max response", "setting": "[1]", "value": 37.7, "unit": "%"},
      {"measurement": "AC50", "setting": "[2]", "value": "2.51 µM [rising, full curve]"},
      {"measurement": "AC50", "setting": "[3]", "value": "1.78 µM [rising, full curve]"},
      {"measurement": "max response", "setting": "[4]", "value": 40.4, "unit": "%"}
    ]},
    {"molecule": "CNc1ncnc2c1ncn2[C@H]1C[C@H](OP(=O)(O)O)[C@H](COP(=O)(O)O)O1", "values": [
      {"measurement": "max response", "setting": "[1]", "value": 33.1, "unit": "%"},
      {"measurement": "AC50", "setting": "[2]", "value": "31.6 µM [rising, single point]"},
      {"measurement": "AC50", "setting": "[3]", "value": "35.5 µM [rising, single point]"},
      {"measurement": "max response", "setting": "[4]", "value": 48.1, "unit": "%"}
    ]},
    {"molecule": "O=c1cnc2cnc(Oc3cccc(Cl)c3)nc2n1CCc1ccccc1", "values": [
      {"measurement": "max response", "setting": "[1]", "value": 32, "unit": "%"},
      {"measurement": "AC50", "setting": "[2]", "value": "5.62 µM [rising, full curve, poor fit]"},
      {"measurement": "AC50", "setting": "[3]", "value": "5.62 µM [rising, full curve, poor fit]"},
      {"measurement": "max response", "setting": "[4]", "value": 35.2, "unit": "%"}
    ]},
    {"molecule": "CN(Cc1ccco1)c1ccnc(-c2cccc(C#N)c2)n1", "values": [
      {"measurement": "max response", "setting": "[1]", "value": 27.7, "unit": "%"},
      {"measurement": "AC50", "setting": "[2]", "value": "3.55 µM [rising, partial curve]"},
      {"measurement": "AC50", "setting": "[3]", "value": "5.62 µM [rising, partial curve]"},
      {"measurement": "max response", "setting": "[4]", "value": 38.4, "unit": "%"}
    ]},
    {"molecule": "COc1ccc(-c2nc(C(=O)N3CCN(C)CC3)sc2-c2ccc(OC)cc2)cc1", "values": [
      {"measurement": "max response", "setting": "[1]", "value": 78.2, "unit": "%"},
      {"measurement": "AC50", "setting": "[2]", "value": "25.1 µM [rising, partial curve]"},
      {"measurement": "AC50", "setting": "[3]", "value": "28.2 µM [rising, partial curve]"},
      {"measurement": "max response", "setting": "[4]", "value": 107, "unit": "%"}
    ]},
    {"molecule": "COc1ccccc1-c1ccc2ncnc(N3CCNCC3)c2c1", "values": [
      {"measurement": "max response", "setting": "[1]", "value": 38.4, "unit": "%"},
      {"measurement": "AC50", "setting": "[2]", "value": "0.794 µM [rising, partial curve]"},
      {"measurement": "AC50", "setting": "[3]", "value": "0.224 µM [rising, full curve]"},
      {"measurement": "max response", "setting": "[4]", "value": 39.3, "unit": "%"}
    ]},
    {"molecule": "O=C(c1ccc(F)cc1)C1CCN(CCCCc2ccccc2)CC1", "values": [
      {"measurement": "max response", "setting": "[1]", "value": 72.1, "unit": "%"},
      {"measurement": "AC50", "setting": "[2]", "value": "12.6 µM [rising, partial curve, poor fit]"},
      {"measurement": "AC50", "setting": "[3]", "value": "15.8 µM [rising, partial curve, poor fit]"},
      {"measurement": "max response", "setting": "[4]", "value": 96.7, "unit": "%"}
    ]},
    {"molecule": "Cn1cc(-c2nc3cncnc3n(-c3ccccc3)c2=O)c2ccccc21", "values": [
      {"measurement": "max response", "setting": "[1]", "value": 28.6, "unit": "%"},
      {"measurement": "AC50", "setting": "[2]", "value": "0.708 µM [rising, full curve, poor fit]"},
      {"measurement": "AC50", "setting": "[3]", "value": "0.708 µM [rising, full curve, poor fit]"},
      {"measurement": "max response", "setting": "[4]", "value": 14.7, "unit": "%"}
    ]},
    {"molecule": "N#Cc1cccc(-c2nccc(NCc3cccnc3)n2)c1", "values": [
      {"measurement": "max response", "setting": "[1]", "value": 40, "unit": "%"},
      {"measurement": "AC50", "setting": "[2]", "value": "0.355 µM [rising, full curve]"},
      {"measurement": "AC50", "setting": "[3]", "value": "0.355 µM [rising, full curve]"},
      {"measurement": "max response", "setting": "[4]", "value": 46, "unit": "%"}
    ]},
    {"molecule": "COc1ccc(Oc2ncc3nc(-c4ccccc4)c(=O)n(Cc4cccs4)c3n2)cc1", "values": [
      {"measurement": "max response", "setting": "[1]", "value": 23.6, "unit": "%"},
      {"measurement": "AC50", "setting": "[2]", "value": "1.78 µM [rising, partial curve]"},
      {"measurement": "AC50", "setting": "[3]", "value": "0.0562 µM [rising, full curve, poor fit]"},
      {"measurement": "max response", "setting": "[4]", "value": 28.1, "unit": "%"}
    ]},
    {"molecule": "O=[N+]([O-])c1cccc2c(Br)[nH]nc12", "values": [
      {"measurement": "max response", "setting": "[1]", "value": "67.1% and 23.7% and -4.02%"},
      {"measurement": "AC50", "setting": "[2]", "value": "14.1 µM [rising, partial curve, poor fit] and 1.26 µM [falling, full curve]"},
      {"measurement": "AC50", "setting": "[3]", "value": "25.1 µM [rising, partial curve, poor fit] and 25.1 µM [rising, single point] and 1.26 µM [falling, full curve]"},
      {"measurement": "max response", "setting": "[4]", "value": "92.4% and 43.7% and -0.292%"}
    ]},
    {"molecule": "COc1ncc2nc(-c3cn(C)c4ccccc34)c(=O)n(-c3ccccc3)c2n1", "values": [
      {"measurement": "max response", "setting": "[1]", "value": 36.6, "unit": "%"},
      {"measurement": "AC50", "setting": "[2]", "value": "25.1 µM [rising, single point]"},
      {"measurement": "AC50", "setting": "[3]", "value": "39.8 µM [rising, single point]"},
      {"measurement": "max response", "setting": "[4]", "value": 30.3, "unit": "%"}
    ]},
    {"molecule": "CC1(C)C(=O)NC2=C1C(=O)C(=O)c1ccccc12", "values": [
      {"measurement": "max response", "setting": "[1]", "value": 56.9, "unit": "%"},
      {"measurement": "AC50", "setting": "[2]", "value": "28.2 µM [rising, partial curve, poor fit]"},
      {"measurement": "AC50", "setting": "[3]", "value": "28.2 µM [rising, partial curve, poor fit]"},
      {"measurement": "max response", "setting": "[4]", "value": 53.1, "unit": "%"}
    ]},
    {"molecule": "CC#C[C@]1(O)CC[C@H]2[C@@H]3CCC4=CC(=O)CCC4=C3[C@H](c3ccc(N(C)C)cc3)C[C@@]21C", "values": [
      {"measurement": "max response", "setting": "[1]", "value": 95.7, "unit": "%"},
      {"measurement": "AC50", "setting": "[2]", "value": "8.91 µM [rising, partial curve]"},
      {"measurement": "AC50", "setting": "[3]", "value": "11.2 µM [rising, partial curve]"},
      {"measurement": "max response", "setting": "[4]", "value": 122, "unit": "%"}
    ]},
    {"molecule": "COc1ccc(-c2cc(=O)c3c(O)cc(O)cc3o2)cc1", "values": [
      {"measurement": "max response", "setting": "[1]", "value": "-29.8% and 59.9%"},
      {"measurement": "AC50", "setting": "[2]", "value": "17.8 µM [rising, partial curve, poor fit]"},
      {"measurement": "AC50", "setting": "[3]", "value": "15.8 µM [falling, single point] and 15.8 µM [rising, full curve]"},
      {"measurement": "max response", "setting": "[4]", "value": "-39.2% and 67.6%"}
    ]},
    {"molecule": "COc1ccc2[nH]cc(CCNc3ncncc3-c3cccc(NS(C)(=O)=O)c3)c2c1", "values": [
      {"measurement": "max response", "setting": "[1]", "value": 39.2, "unit": "%"},
      {"measurement": "AC50", "setting": "[2]", "value": "3.16 µM [rising, partial curve]"},
      {"measurement": "AC50", "setting": "[3]", "value": "2 µM [rising, full curve]"},
      {"measurement": "max response", "setting": "[4]", "value": 47, "unit": "%"}
    ]},
    {"molecule": "Clc1ccccc1-c1nc(NCCN2CCOCC2)c2ccccc2n1", "values": [
      {"measurement": "max response", "setting": "[1]", "value": 44.5, "unit": "%"},
      {"measurement": "AC50", "setting": "[2]", "value": "14.1 µM [rising, partial curve, poor fit]"},
      {"measurement": "AC50", "setting": "[3]", "value": "12.6 µM [rising, partial curve, poor fit]"},
      {"measurement": "max response", "setting": "[4]", "value": 48.8, "unit": "%"}
    ]}
  ]
}
